Assays:
Assay in all cases: binding ELISA, biotinylated peptide on neutravidin plate, scFv titrated
[1] = target: T1, Peptide-79
T1 peptide: ACDTYFAGMINECF

[2] = target: T2, Peptide-87
T2 peptide: YCAGHAWQYINKCL

[3] = target: T3, Peptide-41
T3 peptide: MDWCPRDLWVHCFA

EC50 [1]: 73.2 nM
EC50 [2]: 156 nM
EC50 [3]: 98.5 nM
B1: anti-CD28 scFv (disulfide) (scFv)
scFv: QVQLVQSGAEVKKPGASVKVSCKASGYTFTSYYIHWVRQAPGQCLEWIGSIYPGNVNTNYNEKFKDRATLTVDTSISTAYMELSRLRSDDTAVYFCTRSHYGLDWNFDVWGQGTTVTVSSGGGGSGGGGSGGGGS[sequence of about 100 residues not given]
notes: also called Anti-CD28 scFv (VH - linker 1 - VL) Disulfide mutation: G44C, G235C

From patent publication US20260242478A1 (published 2026)
